Data on 88 compounds can be found in publication PMC4336329 (PLoS ONE, 2015).

The whole screen tested about 310,000 compounds, of which about 14,000 (4.5%) showed an effect of 50% or more. Effects have a minus sign here. The list shows a part of the results.
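Further: peak tail current of the secondary pulse compared with the same well before compound.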

Chain of human ether-à-go-go-related gene (hERG) potassium channel (Q12809 whole entry, looked up): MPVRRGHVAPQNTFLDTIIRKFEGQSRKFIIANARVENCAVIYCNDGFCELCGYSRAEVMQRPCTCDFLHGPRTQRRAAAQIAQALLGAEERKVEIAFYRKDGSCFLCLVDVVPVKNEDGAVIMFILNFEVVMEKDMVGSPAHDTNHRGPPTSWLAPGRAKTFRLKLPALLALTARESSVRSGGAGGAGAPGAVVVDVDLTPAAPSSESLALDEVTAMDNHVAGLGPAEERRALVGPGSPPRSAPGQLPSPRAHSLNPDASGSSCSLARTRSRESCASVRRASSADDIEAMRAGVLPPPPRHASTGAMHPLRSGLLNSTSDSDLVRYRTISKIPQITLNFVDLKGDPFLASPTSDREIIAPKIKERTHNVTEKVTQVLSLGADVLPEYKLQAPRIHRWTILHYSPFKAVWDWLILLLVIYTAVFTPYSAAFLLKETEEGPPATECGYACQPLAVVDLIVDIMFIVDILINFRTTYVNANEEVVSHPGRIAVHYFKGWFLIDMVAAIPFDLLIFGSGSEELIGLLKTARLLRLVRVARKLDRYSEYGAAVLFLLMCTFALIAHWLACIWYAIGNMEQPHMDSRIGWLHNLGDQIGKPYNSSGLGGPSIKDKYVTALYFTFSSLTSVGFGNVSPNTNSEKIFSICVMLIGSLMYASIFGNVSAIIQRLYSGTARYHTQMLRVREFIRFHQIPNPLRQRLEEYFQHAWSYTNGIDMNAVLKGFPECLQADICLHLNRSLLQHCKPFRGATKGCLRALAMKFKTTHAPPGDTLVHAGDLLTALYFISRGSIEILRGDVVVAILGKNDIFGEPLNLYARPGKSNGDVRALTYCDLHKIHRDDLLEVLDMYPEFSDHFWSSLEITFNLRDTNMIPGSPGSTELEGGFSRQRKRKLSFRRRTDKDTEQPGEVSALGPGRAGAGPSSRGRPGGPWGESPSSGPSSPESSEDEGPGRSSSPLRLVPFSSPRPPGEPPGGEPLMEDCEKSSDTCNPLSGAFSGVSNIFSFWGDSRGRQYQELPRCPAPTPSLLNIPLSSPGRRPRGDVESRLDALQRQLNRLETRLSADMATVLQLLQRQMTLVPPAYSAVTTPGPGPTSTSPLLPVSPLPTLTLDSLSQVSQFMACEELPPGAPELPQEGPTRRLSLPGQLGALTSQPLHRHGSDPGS

The experiment concerns the target human ether-à-go-go-related gene (hERG) potassium channel (human, UniProt Q12809). The experiment in a line: primary screen, population patch clamp on CHO cells stably expressing hERG.
For `Cn1c(=O)c2[nH]c(N3CCN(c4ccccc4)CC3)nc2n(C)c1=O`, the “hERG current change (%, negative = inhibition) at 10uM” value is reported as 8.36%.

Regarding `CCNC(=O)C1CC(=O)N(c2ccc(OCC)cc2)C1` (stereo not shown), the “hERG current change (%, negative = inhibition) at 10uM” value is reported as 0.654%. Turning to `CCc1cccc(CC)c1NC(=O)COC(=O)/C(C#N)=C/c1ccc(OC)cc1`, the “hERG current change (%, negative = inhibition) at 10uM” value was -0.228%. With `COc1ccc(CCn2c(-c3ccco3)nc3nc4ccccc4nc32)cc1`, the “hERG current change (%, negative = inhibition) at 10uM” value is -3.77%.

In the case of `O=C(NCCC1=CCCCC1)C1CCCN(c2nc3ccccc3o2)C1` (stereo not shown), the “hERG current change (%, negative = inhibition) at 10uM” value is listed as -13.6%. To `COCc1c(C(=O)OC)nnn1-c1ccc(C(F)(F)F)cc1[N+](=O)[O-]` belongs 6.31%; to `CCN(c1ccccc1)S(=O)(=O)c1ccc(Oc2ccc([N+](=O)[O-])cc2)nc1`, -21%; to `O=C(NC1CC1)C1=C[C@@H](c2coc3ccccc3c2=O)C[C@@H](OCc2ccc(CO)cc2)O1`, -20%. For `Cc1ccc(-n2c(O)c(/C=N/c3ncc(Br)cc3Br)c(=O)[nH]c2=O)cc1` the value was 2.79%; for `C=CCN1C(=O)/C(=C2/Sc3ccc(OC)cc3N2C)SC1=NCc1ccccc1`, 20.9%; for `COc1ccc(NC(=O)CCCC(=O)c2ccccc2)cc1OC`, 11.4%. To `Cc1ccc(N=CC=C2OC(C)(C)C(C)(C)O2)c(C)c1` belongs 7.04%. Consider `CC1(/[N+]([O-])=C\c2ccccc2F)CCCCC1=O` (stereo not shown), for which the “hERG current change (%, negative = inhibition) at 10uM” value came out at 8.53%. As for `CCOC(=O)C1CCCN(Cc2cccc(Oc3ccccc3)c2)C1` (stereo not shown), the “hERG current change (%, negative = inhibition) at 10uM” value is 0.824%.

As for `C/C(N)=C(/C#N)C(=O)CSc1nnc(Nc2ccccc2C)s1`, the “hERG current change (%, negative = inhibition) at 10uM” value is given as -3.32%.

For `NC(=O)c1cc(-c2ccncc2)nc2ccc(Cl)cc12`, the “hERG current change (%, negative = inhibition) at 10uM” value is given as -11.8%.

Regarding `CCN1CCc2c(OCC(=O)N3CCCc4ccccc43)cccc2C1=O`, the “hERG current change (%, negative = inhibition) at 10uM” value was -7.07%. Turning to `CSCC[C@@H](C(=O)Nc1ccc2c(c1)OCCO2)N1Cc2ccccc2C1=O`, the “hERG current change (%, negative = inhibition) at 10uM” value is given as -29.5%. To `COc1ccc(CN2CCN(C3CCC3)CC2CCO)c(F)c1` (stereo not shown) belongs 9.71%; to `c1ccc2c(-c3nc4ncccc4o3)cccc2c1`, -5.31%. Turning to `CC(C)N1CCc2c(sc(NC(=O)CN3C(=O)c4ccccc4C3=O)c2C(N)=O)C1.Cl`, the “hERG current change (%, negative = inhibition) at 10uM” value was -47.5%. As to `N#C/C(=C\c1ccc(-c2ccc(S(=O)(=O)N3CCOCC3)cc2)o1)C(=O)NC1CC1`, the “hERG current change (%, negative = inhibition) at 10uM” value was -10.4%.

For the compound `Cc1c(OCc2ccccc2)c(=O)ccn1Cc1ccc(Cl)cc1`, the “hERG current change (%, negative = inhibition) at 10uM” value stood at 6.79%. As for `C1=CC2CC1CC2CN1CCN(c2ccccc2)CC1` (stereo not shown), the “hERG current change (%, negative = inhibition) at 10uM” value is -24.3%. To `CCOC(=O)c1nc(Nc2cccc(C)c2)c2ccccc2n1` belongs -6.72%; to `COc1ccc(CN(C)CC(=O)Nc2cccc(S(=O)(=O)N(C)c3ccccc3)c2)c(OC)c1`, -42.6%. To `O=C(c1cccc(C(=O)N2CCC(O)(c3ccccc3)CC2)c1)N1CCC(O)(c2ccccc2)CC1` belongs -13.3%; to `Cn1ncc2c(Nc3ccccc3Cl)nc(Cl)nc21`, 13.8%; to `Cc1ccc2cc3c(N)c(C(=O)N4CC(=O)Nc5ccccc54)sc3nc2c1`, 30.7%. For `CC(C)C(=O)Nc1cc(=O)[nH]c2ncnn12` the value was 5.86%; for `Cc1nc(-c2ccccc2)sc1C(=O)Nc1ccc(S(N)(=O)=O)cc1`, 6.53%. `CC(Nc1nc(-c2ccccc2O)nc2ccccc12)c1ccccc1` (stereo not shown): the “hERG current change (%, negative = inhibition) at 10uM” value was 5.73%. Take `Br.CCCn1c(=N)n(CC(=O)O)c2ccccc21`: the “hERG current change (%, negative = inhibition) at 10uM” value is listed as -5.8%. Turning to `CCCCN(CCCC)C(=O)c1cn(CC)c2cc(N3CCN(C)CC3)c(F)cc2c1=O.Cl`, the “hERG current change (%, negative = inhibition) at 10uM” value came to 3.58%. To `Cc1cccc(NC(=S)NNC(=O)c2csc(C)c2)c1` belongs 15.9%; to `CCOC(=O)c1ccccc1NC(=S)N1CCC(C)CC1`, -15.4%.

On to `C[C@]12CCC(=O)C=C1CC[C@@H]1[C@@H]2CC[C@]2(C)C(=O)CC[C@@H]12`, for which the “hERG current change (%, negative = inhibition) at 10uM” value was -10.4%. For `CCN(CCO)Cc1csc2c(Br)cccc12.Cl` the value was -29.8%. Turning to `CCN(CC(=O)Nc1ccccc1C(F)(F)F)C(=O)CCOc1ccc(C)cc1`, the “hERG current change (%, negative = inhibition) at 10uM” value is recorded as -13.1%. To `COc1ccc(N(C(=O)Cn2nnc3ccccc32)C(C(=O)NCc2ccco2)c2cccnc2)cc1` (stereo not shown) belongs 9.77%; to `CCn1nnnc1SCC(=O)N1c2ccccc2NC(=O)CC1C` (stereo not shown), 3.95%.

For `Cc1ccc(-c2csc(NC(=S)NC(=O)c3cccs3)n2)cc1`, the “hERG current change (%, negative = inhibition) at 10uM” value stood at 11.3%. As to `CC(/C=N/NC(=O)c1sc(N)nc1C)=C\c1ccccc1`, the “hERG current change (%, negative = inhibition) at 10uM” value was 13.2%. In the case of `CCCCOC(=O)NC1CCS(=O)(=O)C1` (stereo not shown), the “hERG current change (%, negative = inhibition) at 10uM” value worked out at 18.6%. For `O=C(c1ccco1)N1CCc2ccccc21` the value was -3.68%; for `Cc1ccc(NC(=O)CO/N=C(\N)c2nonc2N)cc1`, 6.19%; for `COc1ccc(C(c2nnnn2C(C)C)N2CCN(C(=O)c3ccco3)CC2)cc1` (stereo not shown), -19%. In the case of `CCc1cccc(CC)c1-n1c(SCn2nnc3ccccc3c2=O)nnc1-c1cccnc1`, the “hERG current change (%, negative = inhibition) at 10uM” value is on record as -21%. As for `CCOCCCNC(=O)C(c1ccc(C)cc1)N(Cc1cccs1)C(=O)CNC(C)=O` (stereo not shown), the “hERG current change (%, negative = inhibition) at 10uM” value is -23.9%. For the compound `O=c1cc(C(F)(F)F)[nH]c2c(C(F)(F)F)cccc12`, the “hERG current change (%, negative = inhibition) at 10uM” value turned out to be 15.5%.

In the case of `CC(=O)c1ccc(N2CCCCCC2)c(F)c1`, the “hERG current change (%, negative = inhibition) at 10uM” value is recorded as -6.96%.

Consider `CC(SCC(=O)O)c1nc2ccccc2[nH]1` (stereo not shown), for which the “hERG current change (%, negative = inhibition) at 10uM” value is given as 31.7%.

Consider `COc1ccc(-c2nnc(SCC(=O)N3CCCC3)o2)cc1OC`, for which the “hERG current change (%, negative = inhibition) at 10uM” value turned out to be 15.9%. To `COc1ccccc1NC(=O)C1CCCN(S(=O)(=O)c2ccc3[nH]c(=O)ccc3c2)C1` (stereo not shown) belongs -33.9%; to `COC(=O)Cc1c(C)nc2nc(NCc3ccccc3OC)[nH]n2c1=O`, 11.2%; to `CC(C)c1ccc(O)c(NC(=S)NC(=O)c2ccc3c(c2)OCO3)c1`, 1.62%. To `COCCN(C(=O)C(=O)NC1CCCC1)C(C(=O)NC1CCCC1)c1ccccc1F` (stereo not shown) belongs 21.8%; to `CCOC(=O)N1CCC(NC(=O)c2ccc(CS(=O)c3cccc(Cl)c3)o2)CC1` (stereo not shown), 14.3%. As for `Cc1ccc(C)c2sc(NC(=O)c3nc4ccccc4s3)nc12`, the “hERG current change (%, negative = inhibition) at 10uM” value is on record as 2.76%.

With `Cc1ccc(Cn2nc(C)c(NC(=O)c3cc(-c4ccc5c(c4)OCO5)on3)c2C)cc1`, the “hERG current change (%, negative = inhibition) at 10uM” value is 11.6%. To `O=S1(=O)CCOC[C@H](CC2CCCCC2)N1Cc1cccc(C(F)(F)F)c1` belongs 2.78%; to `COc1ccc(CCNC(=O)C(=O)NCC2OCCN2S(=O)(=O)c2ccc(C)cc2)cc1OC` (stereo not shown), -23.8%; to `CN(C)S(=O)(=O)N1CCN(S(=O)(=O)N2CCOCC2)CC1`, 17.2%. To `Cc1nc(CSc2ccc(Cl)cc2)cc(NCc2ccccc2)n1` belongs -25.2%.

For `CCN(CC(=O)Nc1c(F)cccc1F)C(=O)c1cccc(S(=O)(=O)N2CCN(c3ccccc3)CC2)c1`, the “hERG current change (%, negative = inhibition) at 10uM” value worked out at 2.51%. Consider `Cc1c(Cl)c([N+](=O)[O-])nn1CC(=O)NCCCN1CCOCC1`, for which the “hERG current change (%, negative = inhibition) at 10uM” value is reported as 0.126%. To `CCN(CC(=O)Nc1ccccc1OC)C(=O)CSCc1c(C)noc1C` belongs 17.4%; to `C=COCCNC(=O)C1CC(=O)N(c2ccc(C)cc2)C1` (stereo not shown), -2.77%; to `Cc1ccc(S(=O)(=O)Nc2c(C(=O)O)[nH]c3ccccc23)c(C)c1`, 8.39%.

In the case of `COc1cc(=O)n2c(n1)SCCC2`, the “hERG current change (%, negative = inhibition) at 10uM” value is 15.9%. To `CC(C)(C)c1ccc(OCC(=O)OCCNC(=O)c2cccnc2)cc1.Cl` belongs -14.7%; to `Cc1nn(C(C)c2n[nH]c(=S)n2-c2ccc(F)cc2)c(C)c1[N+](=O)[O-]` (stereo not shown), 13.3%; to `O=C(c1ccccc1)c1ccccn1`, 2.58%. As to `COCc1c(C(C)C)nc(C(C)C)c(/C=C/[C@@H](O)C[C@@H](O)CC(=O)[O-])c1-c1ccc(F)cc1.[Na+]`, the “hERG current change (%, negative = inhibition) at 10uM” value is on record as 17.9%. `O=S(=O)(NCc1ccccn1)c1cc(C(F)(F)F)ccc1Cl`: the “hERG current change (%, negative = inhibition) at 10uM” value was found to be 22.5%. As for `Cc1nc(SCC(=O)Nc2ccccc2)c2oc3ccccc3c2n1`, the “hERG current change (%, negative = inhibition) at 10uM” value worked out at 8.96%. Consider `COc1ccc2nc(NNC(=O)C3COc4ccccc4O3)sc2c1` (stereo not shown), for which the “hERG current change (%, negative = inhibition) at 10uM” value is on record as -15.1%.

With `O=C(CSCc1ccc([N+](=O)[O-])cc1)NC1CC2CCC1C2` (stereo not shown), the “hERG current change (%, negative = inhibition) at 10uM” value is recorded as -15.3%. For `CCOc1ccc(CCNS(=O)(=O)c2cnc[nH]2)cc1OCC` the value was 20.1%. As to `CC(C)c1csc(CN2CCN(Cc3ccc(F)cc3)C(CCO)C2)n1` (stereo not shown), the “hERG current change (%, negative = inhibition) at 10uM” value is -35.3%. Turning to `COc1ccccc1NC(=S)N1CCC(NC(=O)NC23CC4CC(CC(C4)C2)C3)CC1`, the “hERG current change (%, negative = inhibition) at 10uM” value was -7.81%.

Take `[Br-].c1ccc(Cn2c(-c3ccccc3)c[n+]3c2SCCC3)cc1`: the “hERG current change (%, negative = inhibition) at 10uM” value was -70.9%. `Cc1cc(C)c(S(=O)(=O)c2ccc(Cl)cc2)c(=O)[nH]1`: the “hERG current change (%, negative = inhibition) at 10uM” value amounted to 5.18%. On to `O=C(NCC1([N+](=O)[O-])CN(C(=O)c2ccccc2)CN(C(=O)c2ccccc2)C1)c1ccccc1`, for which the “hERG current change (%, negative = inhibition) at 10uM” value is listed as -5.14%. To `CC(C)(C)OC(=O)N1CCC(NC(=O)c2[nH]cnc2C(=O)N[C@@H](Cc2ccccc2)C(=O)OCc2ccccc2)CC1` belongs 12.9%. Regarding `O=C(O)c1ccc(CS(=O)c2cccc(C(F)(F)F)c2)o1` (stereo not shown), the “hERG current change (%, negative = inhibition) at 10uM” value is reported as -4.59%. `NNC(=O)[C@H]1C[C@@H]1c1ccccc1`: the “hERG current change (%, negative = inhibition) at 10uM” value is -0.643%. To `CC(O)Cc1cn([C@@H](CCCCN)C(=O)N2CCNCC2)nn1.Cl` (stereo partly shown) belongs 1.06%.
